Assay results taken from PubChem BioAssay AID903 (National Center for Advancing Translational Sciences (NCATS), 2007).
The campaign covered roughly 55,000 compounds. About 340 (0.62%) were called active. Inconclusive means that the source gave no clear call. Such entries were picked first, then a sample of the others. Calls follow the shape of the dose curve; as a rule, active = well fitted cell-killing curve with a large enough effect; inconclusive = small, poorly fitted or top-dose-only effect; inactive = no such curve, though single readings can be large or run the other way. A potency beside an inconclusive call is a rough fit, not a confirmed value.

Experiment: qHTS Screen for Compounds that Selectively Target Cancer Cells with p53 Mutations: Cytotoxicity of p53 Null Cells at the Permissive Temperature; also: nearly all actives have a fitted effect of over 55% in size;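 as to activity change, negative = cytotoxicity: 0% = DMSO only and -100% = full killing by 100 µM tamoxifen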
Conditions: H1299-neo p53 null cells, ATP luminescence, 24 h, 32C; series mostly up to 46.1 µM; activity change, negative = cytotoxicity: at the top concentration
How it was run: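 Overnight 37C seeding (600 cells/well) of H1299-neo preceded a 24 hr, 32C exposure to compounds up to 46 uM. ATP levels, read by luminescence after 20 min at RT, indicated surviving cells.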
Potency is read from the fitted curve at half-maximal effect; tags tell the direction and shape of the fitted curve.

| Structure (SMILES) | activity change, negative = cytotoxicity | Potency |
| --- | --- | --- |
| COCCCNC(=O)c1sc2nc3n(c(=O)c2c1C)CCC3 | inactive: 9.29% |  |
| Cc1ccn2c(Nc3ccc4c(c3)OCO4)c(-c3ccc(N(C)C)cc3)nc2c1 |  | inconclusive: 20 µM [cytotoxic, partial curve] |
| CCOC(=O)c1cccc(NC(=O)C2CCCN(S(=O)(=O)c3ccc4c(c3)oc(=O)n4C)C2)c1 (configuration not stated) |  | inconclusive: 6.31 µM [cytotoxic, single point] |
| Cn1c(C(=O)NCc2ccccc2F)cc2oc3ccccc3c21 |  | inconclusive: 4.47 µM [cytotoxic, partial curve, poor fit] |
| Cc1ccc(C(=O)Nc2cccc(O)c2)cc1S(=O)(=O)N1CCCCCC1 | inactive: -4.94% |  |
| Cc1nc(-c2ccc(Cl)cc2)sc1CCNC(=O)Cc1ccc(F)cc1 |  | inconclusive: 0.158 µM [cytotoxic, full curve, poor fit] |
| O=C(NCCc1ccccc1)c1cnc2sccn2c1=O |  | inconclusive: 31.6 µM [cytotoxic, single point] |
| Cc1nnc(N2CCC(C(=O)Nc3ccc(F)cc3)CC2)c2nn(-c3ccc(Cl)cc3)c(C)c12 | inactive: 12.4% |  |
| CCc1ccc(-c2[nH]nc3nc(-c4ccc(OC)cc4)cc(C(=O)NCCCOC)c23)cc1 |  | inconclusive: 0.0126 µM [cytotoxic, full curve, poor fit] |
| CCC(CC)c1nn2c(=O)cc(COc3ccc(NC(=O)c4ccc(C)cc4)cc3)nc2s1 |  | inconclusive: 4.47 µM [cytotoxic, single point] |
| Cc1ccc(C)c(CN2C(=O)c3ccccc3S(=O)(=O)c3ccc(C(=O)NCCCN4CCCC(C)C4)cc32)c1 (configuration not stated) | inactive: -1.35% |  |
| CC(=O)c1ccc(NS(=O)(=O)c2cccc(S(=O)(=O)c3ccc(Cl)cc3)c2)cc1 |  | inconclusive: 5.62 µM [cytotoxic, single point] |
| Cc1c(C(=O)Nc2ccc(C(=O)O)cc2)nnn1-c1ccccc1 |  | active: 12.6 µM |
| CN(C)CCNc1ncnc2c1cnn2-c1cccc(Cl)c1 | inactive: 2.13% |  |
| Cc1cc(F)ccc1S(=O)(=O)Nc1ccc2oc3c(c2c1)CC(C)CC3 (configuration not stated) |  | inconclusive: 31.6 µM [cytotoxic, single point] |
| COCc1nn2cc(-c3ccc(C)cc3)nc2s1 |  | active: 10 µM |
| CC(C)(C)OC(=O)N1CCC(c2nnc(SCc3cccc(Cl)c3)o2)CC1 | inactive: 2.91% |  |
| O=C(NCCCc1ccccc1)Nc1cccc(Cl)c1 |  | inconclusive: 22.4 µM [cytotoxic, single point] |
| CCC(C)NC(=O)Cn1c(=O)n(CCCCCC(=O)NCc2ccccc2Cl)c(=O)c2sccc21 (configuration not stated) | inactive: -2.14% |  |
| CC(C)(C)c1ccc(C(=O)Nc2ccc3c(c2)CCCN3C(=O)c2cccs2)cc1 |  | inconclusive: 1 µM [cytotoxic, full curve, poor fit] |
| CCOc1ccccc1NC(=O)c1ccc2c(Cl)c3c(nc2c1)CCC3 |  | inconclusive: 3.98 µM [cytotoxic, partial curve] |
| CCC(C)NC(=O)Cn1ccc2cc(S(=O)(=O)N3CCCCC3)ccc21 (configuration not stated) | inactive: 17.3% |  |
| Cc1cc(C)c(OCC(=O)N(Cc2ccco2)Cc2ccco2)c(C)c1 | inactive: 13.3% |  |
| CCOc1ccc(-n2ccnc2SCC(=O)Nc2nc3ccc(C)cc3s2)cc1 | inactive: 8.08% |  |

| Structure (SMILES) | activity change, negative = cytotoxicity | Potency |
| --- | --- | --- |
| COc1ccccc1C1CC(c2ccco2)=NN1c1ccccc1 (configuration not stated) |  | inconclusive: 0.0089 µM [cytotoxic, full curve, poor fit] |
| Cc1ccc(Cl)cc1-n1c(=O)c2sc3ccccc3c2n(Cc2ccccc2)c1=O |  | inconclusive: 3.98 µM [cytotoxic, partial curve] |
| O=C(NCCc1ccccc1Cl)c1ccc2c(c1)nc1n2CCOC1 |  | active: 10 µM |
| CCCCCCc1cc2cc(C(=O)NCc3ccccc3)c(=N)oc2cc1O | inactive: -1.06% |  |
| CCCNS(=O)(=O)c1ccc2nc(NC(=O)c3ccc(F)cc3)sc2c1 | inactive: -10.3% |  |
| O=C(Nc1cc2ccc(O)cc2oc1=O)c1ccccc1 |  | inconclusive: 12.6 µM [cytotoxic, partial curve] |
| Cc1ccc(-c2nc3n(n2)Cc2ccccc2-3)cc1 |  | active: 8.91 µM |
| COc1ccc(CC(=O)NCCc2csc(-c3ccc(C(F)(F)F)cc3)n2)cc1 |  | inconclusive: 5.62 µM [cytotoxic, single point] |
| CC(C)Oc1ccc(Cn2c(=O)sc3ccccc32)cc1 | inactive: -6.62% |  |
| CCOc1ccc(OCC)c(NC(=O)CCc2nc3cccnc3n2Cc2cccs2)c1 |  | inconclusive: 3.55 µM [cytotoxic, single point] |
| Cc1cccc(N2CCN(C(=O)CN3C(=O)COc4ccc(S(=O)(=O)N5CCOCC5)cc43)CC2)c1C |  | inconclusive: 3.98 µM [cytotoxic, single point] |
| CSc1ccc(CCNC(=O)C(C)n2nc(C)c3sc4ccccc4c3c2=O)cc1 (configuration not stated) |  | inconclusive: 10 µM [cytotoxic, partial curve] |
| Cc1cccc(NC(=O)c2cc3ccccc3o2)c1 |  | inconclusive: 35.5 µM [cytotoxic, single point] |
| CCCCSCCCNC(=O)c1cn(C)c2ccc(S(=O)(=O)N3CCCCCC3)cc2c1=O | inactive: -7.6% |  |
| COc1cc2nc(SCC(=O)Nc3ccc(F)cc3)n3nc(CCn4c(C)nc5ccccc54)nc3c2cc1OC | inactive: 12% |  |
| CCc1ccc(CN(C(=O)c2cc3ccccc3oc2=O)C2CCS(=O)(=O)C2)cc1 (configuration not stated) | inactive: -1.4% |  |
| CCc1c(C)sc2c1CCN(Cc1ccc(F)cc1)C2c1ccccc1 (configuration not stated) | inactive: 28.2% |  |
| Cc1cc(C)c(NC(=O)CSc2nccn2Cc2ccco2)c(C)c1 |  | inconclusive: 15.8 µM [cytotoxic, partial curve] |
| Cc1ccc(S(=O)(=O)Nc2cc3c(cc2N2CCOCC2)n(C)c(=O)n3C)c(C)c1 | inactive: 0.602% |  |
| COc1ccc(CNC(=O)CCc2c(C)nn(-c3ccc(N4CCCCC4)nn3)c2C)cc1 | inactive: -13.6% |  |
| O=C(Nc1ccc(F)cc1)c1ccc(Cn2nc(N3CCN(c4ccccc4)CC3)ccc2=O)o1 | inactive: 32.4% |  |
| Cc1cc(/C=C2/SC(=O)N(CC(=O)N3CCOCC3)C2=O)c(C)n1-c1ccccc1F |  | inconclusive: 11.2 µM [cytotoxic, partial curve] |
| CCCN(CCC)CC(O)Cn1cc(/C=C/C(=O)c2ccc(OC)cc2)c2ccccc21 (configuration not stated) |  | inconclusive: 31.6 µM [cytotoxic, single point] |
